# Measurements published in PubChem BioAssay AID1468 (National Center for Advancing Translational Sciences (NCATS), 2008).
# The campaign covered roughly 280,000 compounds. About 1,100 (0.39%) were called active. Inconclusive means that the source gave no clear call. Such entries were picked first, then a sample of the others. The call rests on the fitted dose curve; in most records, active means well fitted inhibition curve with a large enough effect; inconclusive means small, poorly fitted or top-dose-only effect, or effect the other way; inactive means flat fitted curve, though single readings scatter. No potency is given beside an inconclusive call; the fits are too rough.
# Biological target: Microtubule-associated protein tau (Homo sapiens) (UniProt P10636)
# Assay: qHTS for Inhibitors of Tau Fibril Formation, Fluorescence Polarization; further: nearly all actives have a fitted effect of over 55% in size
# Conditions: K18 P301L tau heparin fibrillization, Alexa594 FP, 6 h; series mostly up to 57.7 µM
# In short: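 Read-out: fluorescence polarization of Alexa 594-labeled tau (0.24 uM), 555 nm excitation, 632 nm emission. Mixtures held 15 uM unlabeled K18 P301L, compound and 20 uM heparin, pH 7 acetate buffer, incubated 6 hr at 37 C.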
# Potency means the concentration at half of the fitted maximal effect; tags describe the fitted curve by direction and shape.
# Sequence of UniProt P10636 (P10636 whole entry, looked up): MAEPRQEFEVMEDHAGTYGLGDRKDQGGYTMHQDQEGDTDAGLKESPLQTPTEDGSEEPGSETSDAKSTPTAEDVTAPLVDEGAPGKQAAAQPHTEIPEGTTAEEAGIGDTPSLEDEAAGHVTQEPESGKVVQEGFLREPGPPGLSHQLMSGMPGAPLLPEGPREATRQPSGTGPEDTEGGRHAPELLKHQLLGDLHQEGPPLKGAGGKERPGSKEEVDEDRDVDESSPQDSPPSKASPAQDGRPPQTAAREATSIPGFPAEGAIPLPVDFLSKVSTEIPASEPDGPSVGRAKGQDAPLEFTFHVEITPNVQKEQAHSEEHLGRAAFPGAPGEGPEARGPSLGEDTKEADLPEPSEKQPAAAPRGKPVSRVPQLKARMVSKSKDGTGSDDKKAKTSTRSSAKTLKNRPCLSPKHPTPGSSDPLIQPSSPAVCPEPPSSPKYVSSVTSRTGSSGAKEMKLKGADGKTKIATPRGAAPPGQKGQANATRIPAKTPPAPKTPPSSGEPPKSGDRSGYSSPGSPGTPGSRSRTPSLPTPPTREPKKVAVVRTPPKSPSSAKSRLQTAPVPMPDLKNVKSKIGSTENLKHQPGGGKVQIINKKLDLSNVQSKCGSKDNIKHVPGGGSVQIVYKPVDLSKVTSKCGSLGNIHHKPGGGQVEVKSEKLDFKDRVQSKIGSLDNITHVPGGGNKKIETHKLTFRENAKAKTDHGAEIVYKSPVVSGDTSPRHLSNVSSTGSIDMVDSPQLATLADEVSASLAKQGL
row,Structure (SMILES),Potency
1,Cc1cccc2nc(Cn3c(=O)n(CCCC(=O)NCc4ccco4)c(=O)c4ccccc43)cc(=O)n12,inactive
2,O=C1CC(=O)N(CCc2ccccc2)C(=O)N1CCc1ccccc1,"inconclusive [inhibitor, single point]"
3,CC1(C)CC(=O)C(CC2=C(O)CC(C)(C)CC2=O)C(=O)C1,active: 28.2 µM
4,COc1cc(/C=N\NC(=O)c2ccc(C)nc2)ccc1OC(=O)c1ccc2c(c1)OCO2,active: 25.1 µM
5,CCN1CCCc2cc(CN(CCN3CCOCC3)C(=S)Nc3ccccc3OC)ccc21,inactive
6,O=C(NCCCN1CCCC1)C1CCN(C(=O)c2cc3sccc3n2Cc2ccc(F)cc2)CC1,inactive
7,Cc1cc(NN)nc(NS(=O)(=O)c2ccc(Cl)cc2)n1,"inconclusive [inhibitor, partial curve, poor fit]"
8,CCC1(C)Cc2c(sc3nnn(CC(=O)Nc4ccc(Cl)cc4)c(=O)c23)CO1 (stereo not drawn),"inconclusive [inhibitor, partial curve]"
9,NC(=O)N/N=C/c1c(Sc2nnnn2-c2ccccc2)nc2ccccn2c1=O,"inconclusive [inhibitor, partial curve]"
10,CCCCn1c(=S)[nH]c2ncccc2c1=O,"inconclusive [inhibitor, single point]"
11,O=C(Nc1ccc(N2CCCC2)c(Cl)c1)c1ccc(Br)o1,"inconclusive [activator, partial curve]"
12,CCC1CN(C(=O)N2CCC(C(=O)NCCc3ccc(OC)cc3OC)CC2)c2cc(C)ccc2O1 (stereo not drawn),inactive
13,Cc1cccc(OCc2nc(CC(=O)Nc3ccc(Cl)cc3)cs2)c1,"inconclusive [inhibitor, partial curve]"
14,CNc1nc(Sc2cccc(C(F)(F)F)c2)cc(C(F)(F)F)n1,inactive
15,CC(C)(C)c1ccc(NC(=O)Nc2ccc3ccccc3n2)cc1,"inconclusive [inhibitor, single point]"
16,COc1cc(-c2nc3sccn3c2Nc2c(C)cccc2C)ccc1O,active: 22.4 µM
17,C=CC[C@@H]1[C@H](O)CC[C@@]2(C)[C@H]1CC[C@@H]1[C@@H]2CC[C@]2(C)C([C@H](C)CCCC(C)C)CC[C@@H]12 (stereo partly drawn),"inconclusive [inhibitor, partial curve]"
18,O=C(/C=C/c1ccc(Cl)cc1Cl)NCCSCc1ccccc1,"inconclusive [inhibitor, single point]"
19,CCOc1ccc(-c2nnc3ccc(SCC(=O)Nc4nc5ccc(C)cc5s4)nn23)cc1,"inconclusive [inhibitor, single point]"
20,Cc1ccc(NC=C(S(=O)(=O)c2ccccc2)S(=O)(=O)c2ccccc2)cc1,"inconclusive [inhibitor, partial curve]"
21,COc1ccc(CNC(=O)NC2CCCCC2)cc1,inactive
22,O=C(Nc1nc2c(F)cc(F)cc2s1)c1ccc(S(=O)(=O)N2CCc3ccccc32)cc1,active: 14.1 µM
23,Fc1nc(F)c(F)c(NCCCNc2c(F)c(F)nc(F)c2F)c1F,"inconclusive [inhibitor, partial curve]"

row,Structure (SMILES),Potency
1,COc1cc(/C=C2\C(C)=C(C#N)c3nc(N)c(C#N)c(C)c32)ccc1OCC(=O)O,"inconclusive [inhibitor, partial curve]"
2,CCc1ccccc1Nc1nn2c(=O)c3ccc(C(=O)NCCC4=CCCCC4)cc3nc2s1,inactive
3,O=C(NCCc1ccccc1)c1cc(Nc2ccccc2)nc2ccccc12,"inconclusive [inhibitor, single point]"
4,Cc1ccccc1-c1noc(CSc2nc3ccccc3[nH]2)n1,"inconclusive [inhibitor, single point]"
5,COc1cc(/C=C2/SC(=NCc3ccccc3)N(Cc3ccccc3)C2=O)ccc1O,inactive
6,COc1cc2c(cc1O)-c1ccccc1CN(C)C2,inactive
7,Cn1c(=O)[nH]c(=O)c2c1nc(Br)n2CCCc1ccccc1,inactive
8,CCN(C(=O)CSc1nc2ccc([N+](=O)[O-])cc2s1)C1CCS(=O)(=O)C1 (stereo not drawn),"inconclusive [inhibitor, single point]"
9,Cc1ccc2nc(COc3cccc(NC(=O)Nc4ccc(C)c(Cl)c4)c3)cc(=O)n2c1,"inconclusive [inhibitor, partial curve, poor fit]"
10,CC(=O)c1cccc(NC(=O)c2sc(-n3nc(C)c(Cc4ccccc4)c3C)nc2C)c1,inactive
11,O=C(Nc1ccc(F)c(Cl)c1)c1ccc2c(Cl)c3c(nc2c1)CCCC3,"inconclusive [inhibitor, single point]"
12,COc1cccc(CNCCc2c[nH]c3ccccc23)c1OCc1ccc(F)cc1,"inconclusive [activator, single point]"
13,Cc1nn(-c2ccccc2)c2[nH]c(=O)c(CNc3ccc(N4CCOCC4)cc3)cc12,"inconclusive [inhibitor, single point]"
14,CCc1ccc(-c2csc(NC(=O)COC(=O)CCc3nc4ccccc4s3)n2)cc1,"inconclusive [inhibitor, single point]"
15,CC1=CC(C)(C)NC(=S)N1c1cccc2cc(S(=O)(=O)O)ccc12,"inconclusive [inhibitor, partial curve]"
16,Cc1cc(C)cc(-n2c(SCC(=O)Nc3ccccc3)nc3c(oc4ccccc43)c2=O)c1,"inconclusive [inhibitor, single point]"
17,COc1ccc(-c2nc3cc(NC(=S)NC(=O)Cc4ccccc4)ccc3o2)cc1,"inconclusive [inhibitor, partial curve, poor fit]"
18,COc1ccc(/C=C2/SC(=O)NC2=O)cc1,inactive
19,CC(=O)c1ccc(NC(=O)CSC2=Nc3ccccc3N=C(c3ccc(F)cc3)C2)cc1,"inconclusive [inhibitor, partial curve]"
20,CCC(Cc1ccccc1)NC(=O)Cn1nc(C)n2c(cc3occc32)c1=O (stereo not drawn),"inconclusive [activator, single point]"
21,Cc1cc(NC(=O)CCNS(=O)(=O)c2cc(Br)cnc2N)ccc1Br,"inconclusive [inhibitor, single point]"
22,CCCc1ccccc1OCCNC(=O)c1cc(=O)n(C)c(=O)n1C,inactive
23,Oc1ccc(/C=N/N=C(c2ccccc2)c2ccccc2)c(O)c1O,"inconclusive [inhibitor, partial curve]"

row,Structure (SMILES),Potency
1,COc1cc(C2=N/C(=C\c3ccccc3)C(=O)O2)cc(OC)c1OC,"inconclusive [inhibitor, single point]"
2,CCOc1cc(/C=N\Nc2nc(Nc3ccccc3)nc(N3CCOCC3)n2)ccc1OC(=O)c1ccco1,"inconclusive [inhibitor, single point]"
3,O=[N+]([O-])c1ccc(Sc2ccccn2)nc1,inactive
4,O=C(/C=C/c1ccccc1)c1cc(Br)ccc(=O)c1O,"inconclusive [inhibitor, partial curve]"
5,Cc1ccc(S(=O)(=O)n2ccc(-c3cccc(OCc4c(F)cccc4Cl)c3)n2)cc1,"inconclusive [inhibitor, partial curve, poor fit]"
6,CC1CC2(CC(C)(C(=O)CSc3nc4ccccc4s3)OC2=O)C(=O)O1 (stereo not drawn),"inconclusive [inhibitor, single point]"
7,CN1/C(=C/C=C(C#N)C#N)C=Cc2ccccc21,active: 25.1 µM
8,Cc1cc(C)c2nc3s/c(=C/c4ccccc4)c(=O)n3c2c1,"inconclusive [inhibitor, single point]"
9,Clc1ccccc1CNCC1CCC(CNCc2ccccc2Cl)CC1 (stereo not drawn),inactive
10,CC(=O)Nc1ccc(NC(=O)c2ccc3c(c2)N(Cc2cccc(Cl)c2)C(=O)c2ccccc2S3=O)cc1 (stereo not drawn),"inconclusive [inhibitor, partial curve]"
11,COCc1nc2ccccc2n1Cc1ccc(C(C)(C)C)cc1,inactive
12,O=C(CCCCn1c(=O)c2ccccc2n(Cc2cccc(F)c2)c1=O)NCCc1ccccc1,inactive
13,Cc1ccc(C)c(NC(=O)CN2C(=O)CCc3cc(S(=O)(=O)N4CCCCC4)ccc32)c1,inactive
14,C=CCn1c(C)cc(C(=O)CSc2nnc(Cc3ccccc3)o2)c1C,"inconclusive [inhibitor, single point]"
15,Cc1ccc2c(c1)-c1nc(-c3ccc4c(c3)NC(=O)CO4)cc(-c3ccccc3)c1CO2,"inconclusive [inhibitor, partial curve]"
16,CCc1ccc(NC(=O)N(Cc2cccnc2)Cc2ccco2)cc1,"inconclusive [inhibitor, single point]"
17,Cc1ccc(C)c(N2CCN(C(=O)Cn3cnc4onc(-c5ccc(F)cc5)c4c3=O)CC2)c1,"inconclusive [inhibitor, single point]"
18,CC(=O)Nc1ccc(/C=C/c2noc(-c3ccccc3O)n2)cc1,"inconclusive [inhibitor, partial curve]"
19,CCOC(=O)c1ccc(NC(=O)CN2C(=O)C(CC)SC(CC)C2=O)cc1 (stereo not drawn),"inconclusive [inhibitor, single point]"
20,S=C(Nc1ccc2nsnc2c1)N1CCCC1,"inconclusive [inhibitor, single point]"
21,CCS(=O)(=O)N1CCC(C(=O)N2CCc3ccccc3C2)CC1,"inconclusive [inhibitor, single point]"
22,CCOC(=O)C1CCCN(C(=O)CC(C)c2ccccc2)C1 (stereo not drawn),inactive
